Some of the results follow.
system: HSkMC (human skeletal muscle cells); assay: cytotoxicity call (relative viability < 0.9); details: 10 µM

Structure (SMILES)	cytotoxicity call
CS(=O)(=O)NCc1ccsc1	inactive
C[C@@H]1CCCCO[C@@H](CN(C)C)[C@@H](C)CN([C@H](C)CO)C(=O)c2cc(NC(=O)Nc3cccc4ccccc34)ccc2O1	inactive
C[C@@H]1CCCCO[C@H](CN(C)C(=O)C2CCCCC2)[C@H](C)CN([C@H](C)CO)C(=O)c2cc(NC(=O)NC3CCCCC3)ccc2O1	inactive
CC(C)NC(=O)Nc1ccc2c(c1)CC(=O)N([C@H](C)CO)C[C@@H](C)[C@H](CN(C)C(=O)Nc1ccc3c(c1)OCO3)O2	inactive
Cc1noc(C)c1S(=O)(=O)N(C)C[C@H]1Oc2c(NC(=O)C3CCCCC3)cccc2C(=O)N([C@@H](C)CO)C[C@H]1C	inactive
Cc1cc(C(=O)Nc2cccc3c2O[C@H](CN(C)S(=O)(=O)c2cn(C)cn2)[C@@H](C)CN([C@@H](C)CO)C3=O)n(C)n1	inactive
C[C@@H]1CN([C@@H](C)CO)C(=O)c2cc(NS(=O)(=O)c3cn(C)cn3)ccc2O[C@H]1CN(C)Cc1ccc(C(=O)O)cc1	inactive
C[C@H]1CCCCO[C@H](CN(C)S(=O)(=O)c2ccc(F)cc2)[C@@H](C)CN([C@@H](C)CO)C(=O)c2cc(NC(=O)CCC(F)(F)F)ccc2O1	inactive
C[C@@H]1CCCCO[C@H](CN(C)CC2CCCCC2)[C@H](C)CN([C@H](C)CO)C(=O)c2cc(NC(=O)CCCN(C)C)ccc2O1	inactive
Cc1nccn1CC1CCc2c(c3ccccc3n2C)C1=O.Cl (stereo not given)	inactive
C[C@H](CO)N1C[C@H](C)[C@@H](CN(C)Cc2ccc(Oc3ccccc3)cc2)Oc2ccc(NC(=O)CCC(F)(F)F)cc2C1=O	inactive
C[C@@H]1CN([C@@H](C)CO)C(=O)c2cc(C#CCN(C)C)cnc2O[C@@H]1CN(C)Cc1ccc(C(=O)O)cc1	inactive
COc1ccc(NC(=O)N(C)C[C@H]2OCCCC[C@@H](C)Oc3ccc(NS(=O)(=O)c4cccs4)cc3C(=O)N([C@H](C)CO)C[C@@H]2C)cc1	inactive
CC(C)(O)C#Cc1ccc([C@@H]2[C@H]3CN(S(C)(=O)=O)CCCCN3[C@H]2CO)cc1	inactive
Cc1noc(C)c1S(=O)(=O)N(C)C[C@H]1Oc2ccc(NS(=O)(=O)c3cn(C)cn3)cc2CC(=O)N([C@H](C)CO)C[C@H]1C	inactive
C[C@H]1CN([C@@H](C)CO)C(=O)c2cccc(NC(=O)c3cnccn3)c2O[C@H]1CN(C)C(=O)Nc1ccccc1	inactive
O=c1[nH][nH]c(=S)n1C1CC1	inactive
CCCNC1CCc2nc(N)sc2C1.Cl.Cl (stereo not given)	inactive
C[C@H]1CN([C@@H](C)CO)C(=O)Cc2cc(NC(=O)Cn3cnnn3)ccc2O[C@H]1CN(C)C(=O)Nc1ccccc1	inactive
Cc1ccc(S(=O)(=O)Nc2ccc3c(c2)CC(=O)N([C@@H](C)CO)C[C@H](C)[C@@H](CN(C)C(=O)Nc2ccc(C(F)(F)F)cc2)O3)cc1	inactive
C[C@H]1CN([C@@H](C)CO)C(=O)Cc2cc(NC(=O)Cn3cnnn3)ccc2O[C@H]1CN(C)Cc1ccccc1	inactive
COc1ccc(NC(=O)Nc2ccc3c(c2)C(=O)N([C@@H](C)CO)C[C@@H](C)[C@H](CN(C)CC2CC2)OCCCC[C@@H](C)O3)cc1	inactive
Cc1ccc(S(=O)(=O)Nc2ccc3c(c2)C(=O)N([C@@H](C)CO)C[C@H](C)[C@@H](CN(C)C(=O)C2CCCCC2)OCCCC[C@H](C)O3)cc1	inactive
CCCN(C)C[C@@H]1OCCCC[C@@H](C)Oc2ccc(NS(C)(=O)=O)cc2C(=O)N([C@@H](C)CO)C[C@@H]1C	inactive
Cc1noc(C)c1S(=O)(=O)Nc1ccc2c(c1)CC(=O)N([C@H](C)CO)C[C@H](C)[C@H](CN(C)S(C)(=O)=O)O2	inactive
C=CCC[C@@H](Cc1ccc(F)cc1)C(=O)O[C@H](CNC(=O)[C@@H](CC=C)CC(=O)N(CCO)Cc1ccccc1)c1ccccc1	active
Cc1ccc(-c2cnc3c(c2)C(=O)N([C@H](C)CO)C[C@@H](C)[C@@H](CN(C)C(=O)Cc2ccncc2)O3)cc1	inactive
Cn1cnc(S(=O)(=O)N2C[C@@H](O)COC[C@H]3O[C@@H](CC(=O)NC4CCC4)CC[C@@H]32)c1	inactive
COc1ccc(S(=O)(=O)Nc2ccc3c(c2)C(=O)N([C@@H](C)CO)C[C@H](C)[C@@H](CN(C)Cc2ccc(Cl)c(Cl)c2)O3)cc1	active
C[C@H](CO)N1C[C@H](C)[C@@H](CN(C)CC2CCCCC2)Oc2ccc(NC(=O)CCCCCC(=O)Nc3ccccc3N)cc2C1=O	inactive

Reference: the antibiotic and cytotoxicity screens of Wong et al. (2023)
